Values marked as one replicate rest on one cluster of the flow cell; about a third of the high ones do not repeat.
What follows are sequences tested on ATP (assay: switch fluorescence ratio, 500 uM ATP over buffer (Cy3 cluster intensity, sum of 5 cycles each) (fold (ratio)); higher = stronger signal-on switching upon ATP binding; sequences stand for … in TCGTCGGCAGCGTCAGATGTGTATAAGAGACAGTTTTTTTTTTTTTTTTTTTTTTTTT…TC). Conditions: aptamer strand: ATP DNA aptamer (quencher-CACCTGGGGGAGTATTGCGGAGGAAGG + anchor), 100 nM annealed; ATP concentration: 500 uM; one replicate.
In short: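 Clusters carrying Cy3-labelled switching strands on a modified Illumina MiSeq flow-cell were annealed to 100 nM quencher-labelled ATP aptamer and imaged in selection buffer. They were imaged again after 15 min with 500 uM ATP at 22 °C, over five buffer/ATP cycles with NaOH stripping and re-annealing in between. For each cluster, the fluorescence ratio is the summed Cy3 intensity of the target cycles divided by that of the buffer cycles, averaged per switch-domain sequence. Clusters outside 100-1000 RFU were left out.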
For GTAGCACAGA, the switch fluorescence ratio was 1.09.
GTAGCGTGAC showed a switch fluorescence ratio of 2.
Work on GTAGGAACAC yielded a switch fluorescence ratio of 1.34.
For GTAGGAGGTT, the switch fluorescence ratio was 0.954.
In the case of GTAGGATCTG, the switch fluorescence ratio is reported as 0.968.
In the case of GTAGGCAGCC, the switch fluorescence ratio is reported as 0.967.
Work on GTAGGCGGAT yielded a switch fluorescence ratio of 0.917.
With GTAGGGGCAA the switch fluorescence ratio was 1.09.
GTAGGGGCTT gave a switch fluorescence ratio of 0.984.
With GTAGGTAAAA the switch fluorescence ratio was 0.982.
Sequence GTAGGTAGAT has a switch fluorescence ratio of 0.974.
Sequence GTAGTAAAGA has a switch fluorescence ratio of 1.2.
Sequence GTAGTTATCG has a switch fluorescence ratio of 0.95.
Work on GTAGTTCCTG yielded a switch fluorescence ratio of 0.978.
In the case of GTAGTTCTTG, the switch fluorescence ratio is reported as 0.998.
Sequence GTATAACAAC has a switch fluorescence ratio of 1.02.
GTATAACACC showed a switch fluorescence ratio of 1.01.
In the case of GTATAAGAAT, the switch fluorescence ratio is reported as 0.991.
GTATACGCTC showed a switch fluorescence ratio of 1.01.
GTATAGTCG gave a switch fluorescence ratio of 1.03.
In the case of GTATATTATA, the switch fluorescence ratio is reported as 0.968.
GTATATTATT showed a switch fluorescence ratio of 1.05.
With GTATATTCTG the switch fluorescence ratio was 1.02.
GTATCAATCT showed a switch fluorescence ratio of 1.01.
GTATCCCAGA showed a switch fluorescence ratio of 1.02.
GTATCGACTT gave a switch fluorescence ratio of 0.972.
Work on GTATCTGTCT yielded a switch fluorescence ratio of 1.01.
GTATGAATTT was tested, and the switch fluorescence ratio was 0.99.
Sequence GTATGGGAGG has a switch fluorescence ratio of 0.994.
For GTATGGGGAA, the switch fluorescence ratio was 1.01.
With GTATTAGAAC the switch fluorescence ratio was 1.
Work on GTATTCACAT yielded a switch fluorescence ratio of 1.02.
GTATTCCGAC gave a switch fluorescence ratio of 1.16.
GTATTCGCCA gave a switch fluorescence ratio of 1.03.
In the case of GTATTGCTAA, the switch fluorescence ratio is reported as 0.964.
Work on GTATTGTAGG yielded a switch fluorescence ratio of 0.994.
In the case of GTATTTGAAC, the switch fluorescence ratio is reported as 0.998.
In the case of GTATTTGGG, the switch fluorescence ratio is reported as 1.02.
For GTATTTTAGT, the switch fluorescence ratio was 1.03.
GTCAAACAAG gave a switch fluorescence ratio of 0.983.
In the case of GTCAATAGGG, the switch fluorescence ratio is reported as 1.01.
For GTCAATCGTA, the switch fluorescence ratio was 1.05.
In the case of GTCACAGTTA, the switch fluorescence ratio is reported as 1.04.
GTCACCGACC was tested, and the switch fluorescence ratio was 1.11.
In the case of GTCAGAACGA, the switch fluorescence ratio is reported as 1.01.
GTCAGAAGCT gave a switch fluorescence ratio of 0.988.
GTCAGCATCT showed a switch fluorescence ratio of 1.07.
For GTCAGGATGG, the switch fluorescence ratio was 1.01.
GTCAGTATGG showed a switch fluorescence ratio of 0.962.
GTCAGTCGCT showed a switch fluorescence ratio of 0.976.
GTCATAACGG was tested, and the switch fluorescence ratio was 0.983.
With GTCATGGGGT the switch fluorescence ratio was 0.993.
For GTCATTCACG, the switch fluorescence ratio was 1.03.
GTCATTGATG gave a switch fluorescence ratio of 0.99.
Sequence GTCATTTTAA has a switch fluorescence ratio of 0.992.
Sequence GTCCAAAATT has a switch fluorescence ratio of 1.06.
GTCCCACGCG gave a switch fluorescence ratio of 1.
For GTCCCATACT, the switch fluorescence ratio was 1.28.
GTCCGGAACT was tested, and the switch fluorescence ratio was 1.08.
In the case of GTCCGGACAT, the switch fluorescence ratio is reported as 0.949.
Work on GTCCGGCTGC yielded a switch fluorescence ratio of 0.948.
Sequence GTCCGGGTCT has a switch fluorescence ratio of 1.
For GTCCGTAAAT, the switch fluorescence ratio was 2.89.
Work on GTCCGTAGCC yielded a switch fluorescence ratio of 2.37.
GTCCTATTTG showed a switch fluorescence ratio of 0.936.
GTCCTCCCTC gave a switch fluorescence ratio of 1.85.
GTCCTCGGAC showed a switch fluorescence ratio of 1.43.
For GTCCTGTGGA, the switch fluorescence ratio was 1.14.
GTCGAAAGAA showed a switch fluorescence ratio of 1.
GTCGACATTT gave a switch fluorescence ratio of 0.972.
For GTCGACGTGG, the switch fluorescence ratio was 1.01.
For GTCGACTACA, the switch fluorescence ratio was 0.994.
GTCGAGAAAA was tested, and the switch fluorescence ratio was 1.03.
Work on GTCGCAATTT yielded a switch fluorescence ratio of 2.18.
GTCGCACTTA showed a switch fluorescence ratio of 0.987.
Sequence GTCGCATGA has a switch fluorescence ratio of 0.994.
With GTCGGATGTA the switch fluorescence ratio was 0.956.
GTCGTTAGCA gave a switch fluorescence ratio of 0.934.
In the case of GTCTAAGTTG, the switch fluorescence ratio is reported as 1.
GTCTACAAT showed a switch fluorescence ratio of 1.02.
GTCTACATGT was tested, and the switch fluorescence ratio was 1.02.
With GTCTAGGGGT the switch fluorescence ratio was 1.19.
GTCTATATTA showed a switch fluorescence ratio of 0.945.
In the case of GTCTGAGGCC, the switch fluorescence ratio is reported as 0.991.
GTCTGGCCGA showed a switch fluorescence ratio of 1.01.

From the supplement of paper PMC10126150
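Note: ATP exposure 15 min at 22 °C before imaging.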
